Measured values reported in the supplement of paper PMC3334620.
In all, about 33,000 sequences were measured (“E-score (-0.5 to 0.5)”: median about -0.04, highest 2% from about 0.36 on). This is one part of the list.

target: T1, Hmlalpha2 (UniProt P0CY09); assay: PBM E-score (8-mer binding enrichment) (E-score (-0.5 to 0.5)); higher = stronger / more preferred TF binding; most listed sequences are background and not binding sites; details: protein concentration: 200 nM; construct: GST-full length
T1 sequence: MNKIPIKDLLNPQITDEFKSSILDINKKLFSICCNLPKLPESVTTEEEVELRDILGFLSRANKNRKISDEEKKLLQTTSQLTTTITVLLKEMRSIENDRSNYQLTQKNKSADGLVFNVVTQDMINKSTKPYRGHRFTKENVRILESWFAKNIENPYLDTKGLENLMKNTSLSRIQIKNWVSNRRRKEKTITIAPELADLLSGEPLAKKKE
Outline: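 PURExpress in vitro transcription/translation supplied GST-tagged yeast transcription factors, either full-length or DNA-binding domain. Applied at about 100-200 nM to universal all-10-mer Agilent arrays double-stranded by primer extension, the bound protein was detected with fluorescent anti-GST. E-scores, modified Wilcoxon-Mann-Whitney statistics, were given by the Universal PBM Analysis Suite to ungapped eight-base words pooled with their reverse complements after masliner normalisation.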

| Sequence | PBM E-score |
| --- | --- |
| AAATTGCG | 0.132 |
| CTCTATGA | -0.11 |
| AGGAGAAA | -0.146 |
| GACCACTA | -0.0367 |
| GTGTACAA | 0.439 |
| ATGAACTC | -0.0467 |
| ATCAGTCA | 0.057 |
| CTCTTAGC | -0.103 |
| GAATAACA | 0.39 |
| ACAAGTCC | 0.0646 |
| AGGTTTGG | -0.14 |
| ATCTAGAT | -0.0873 |
| CAGTGCCA | -0.293 |
| GAAGGGTC | -0.202 |
| GCCCTTAA | -0.0553 |
| AGCGGCGC | -0.161 |
| CGACATCA | 0.106 |
| GGGAGCCA | -0.361 |
| AGATAGTA | 0.0708 |
| GTGATCCA | -0.16 |
| GAACTACA | 0.197 |
| CACTCGTC | -0.107 |
| AGACATAT | 0.0652 |
| AAAGCCGG | -0.0314 |
| CATCACAA | 0.248 |

| Sequence | PBM E-score |
| --- | --- |
| TATCGCCA | -0.128 |
| ATAAGTTC | 0.0715 |
| CCCGACGG | -0.133 |
| TATCGACA | 0.163 |
| ACAAGTCT | 0.176 |
| CTAAGGGA | -0.294 |
| TACGTGAA | 0.227 |
| AATGCCTG | -0.234 |
| AGCGGTCC | -0.183 |
| CTACTCAG | -0.0882 |
| GCGGCCTA | -0.221 |
| CATGCCAC | 0.112 |
| AACAAGAG | 0.0954 |
| CTTTCACA | 0.238 |
| AAAATTAA | 0.207 |
| AAGATGCA | 0.0825 |
| CCGAGTCC | -0.142 |
| TAATTGAA | 0.204 |
| CCAGCGCC | -0.337 |
| AGACGAAA | -0.00747 |
| GATCCCGC | -0.331 |
| CGAGATCG | -0.0661 |
| AATCCCAT | -0.0199 |
| ATAAATGA | 0.0479 |
| CGCGTCCA | 0.086 |

| Sequence | PBM E-score |
| --- | --- |
| GGATACCC | -0.25 |
| CGCCTTTC | -0.214 |
| ATGCACCA | -0.0332 |
| AACTTTAC | 0.237 |
| AAGCGAAT | 0.145 |
| CCGGTAGG | -0.219 |
| GCTTCTCA | -0.334 |
| CACTCGGC | -0.0818 |
| CCTCGGGA | -0.302 |
| AACTACTC | 0.0649 |
| AGTCTTTC | -0.265 |
| AGCTTCAT | -0.169 |
| CCATATCA | -0.146 |
| CGACCCGC | -0.135 |
| GTTTTTTA | 0.218 |
| ACGCCTGG | -0.0352 |
| CATAATAG | 0.136 |
| GTACCACA | 0.145 |
| CGGGCAAC | -0.261 |
| CTCCTGTA | 0.102 |
| CAAATAGC | -0.0233 |
| CCCCTTGC | -0.0936 |
| CAGTGGCC | -0.152 |
| ACGACCGC | -0.273 |
| CTTATAAA | 0.0996 |

| Sequence | PBM E-score |
| --- | --- |
| CGCAAACA | 0.207 |
| TCAGAAGA | -0.267 |
| CCTAATAC | 0.171 |
| ACTAGTTA | 0.167 |
| ACGGAACG | 0.0167 |
| ATGGCTGC | -0.187 |
| GTCTAGTA | 0.0962 |
| CCACAACG | -0.0345 |
| TATCCGGA | -0.0417 |
| GCCGTAAA | 0.0868 |
| ATTCTTTA | 0.169 |
| GCCATGCA | 0.0965 |
| CATCCACG | 0.155 |
| CCGGGGCG | -0.306 |
| CAATCGTG | 0.174 |
| AATCAGAC | -0.018 |
| CAGAGCTG | -0.163 |
| AGTCATAA | -0.0877 |
| CTGGGAAA | -0.249 |
| GGAGAAAA | -0.135 |
| TCATCTAA | 0.0514 |
| AGATGACA | 0.144 |
| GTATCTCA | 0.196 |
| GCGCGCTA | 0.112 |
| AGATTGCG | -0.103 |

| Sequence | PBM E-score |
| --- | --- |
| CACCGTCA | -0.131 |
| GGTCGAAC | 0.0286 |
| AAGGTCGA | -0.0822 |
| GGTAGTAA | 0.103 |
| CATCAGTC | -0.235 |
| ACCTAGGC | -0.253 |
| ACGCAGTG | 0.0248 |
| ACCCCAAC | 0.0203 |
| ACGTGGAT | 0.0823 |
| CCGAATAG | -0.0923 |
| ACAAAGAC | 0.216 |
| CTCTAAGC | -0.106 |
| GCTGTGTA | 0.437 |
| CCCCCTCA | -0.371 |
| CATAGGGA | -0.0755 |
| ATGCGAGC | -0.139 |
| CCACACTC | -0.139 |
| ACTCTGCT | -0.142 |
| ACACTTTC | -0.0806 |
| GCACGTAC | -0.0476 |
| ATACAAAA | 0.234 |
| ATATATAA | 0.199 |
| CCTTTTAG | -0.0972 |
| AAATTGAC | 0.238 |
| CCCGTATA | -0.0109 |

| Sequence | PBM E-score |
| --- | --- |
| ATGTCTCA | 0.0532 |
| ACTGTGTA | 0.443 |
| ATATTTTG | -0.025 |
| AGTTACTC | 0.0812 |
| ACGCTATA | 0.0242 |
| TTCCCGAA | -0.0789 |
| TCCTACGA | -0.133 |
| AAGCTCTC | -0.153 |
| AGTGGGGA | -0.191 |
| CCACAACA | 0.0233 |
| GAGTCACA | 0.00056 |
| ACATGGAA | 0.317 |
| ACACCGGT | -0.0298 |
| CGACCAGC | -0.0858 |
| ACATTATC | 0.239 |
| CTAGGCAG | -0.207 |
| AATTCCTA | 0.128 |
| GTCGCAAA | 0.0886 |
| GGGAGGCA | -0.231 |
| ATCCTCTC | -0.166 |
| AGGCTGTA | 0.19 |
| ACAAAGAT | 0.187 |
| CGTACCCC | -0.139 |
| CGTTCCGA | -0.162 |
| ACCGGGAT | -0.24 |

| Sequence | PBM E-score |
| --- | --- |
| AGTCATAC | -0.00735 |
| ACCCTACG | 0.0634 |
| GCACATCC | -0.171 |
| CGCTCCTC | -0.265 |
| ACTGCCAT | 0.0798 |
| TAACCAGA | 0.149 |
| ACAATATA | 0.241 |
| CTCCAGTA | -0.128 |
| CTATGCAA | 0.0816 |
| ACGGTACC | -0.0955 |
| ATGTACAA | 0.433 |
| CAGCACGA | 0.0651 |
| GAACGGCA | -0.156 |
| AGTATGTG | 0.115 |
| GCCGCTAC | -0.261 |
| CACGTAAC | 0.196 |
| GGGATTTA | -0.0755 |
| ATGAGCTA | -0.0339 |
| AAGCTGTG | 0.0414 |
| GTTAAATA | 0.277 |
| ACCATCAT | -0.0447 |
| TAAGTCTA | -0.0997 |
